# Reference: the BET-seq Pho4 binding data (Le et al. 2018)
# This is one part of the list. Values were computed here from the reads of four pooled replicates and scatter widely.
# Target: T1, Pho4 (S. cerevisiae) (UniProt P07270)
# T1 sequence: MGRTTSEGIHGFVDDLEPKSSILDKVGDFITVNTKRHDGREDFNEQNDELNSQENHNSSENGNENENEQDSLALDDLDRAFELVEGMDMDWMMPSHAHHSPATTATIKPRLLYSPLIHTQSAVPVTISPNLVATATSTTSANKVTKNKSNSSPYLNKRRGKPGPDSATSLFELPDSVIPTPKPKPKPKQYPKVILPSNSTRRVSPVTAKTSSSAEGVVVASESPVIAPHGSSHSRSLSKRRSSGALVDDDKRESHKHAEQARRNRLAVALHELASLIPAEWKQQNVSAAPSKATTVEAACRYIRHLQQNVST
# Test: relative binding free energy (BET-seq); higher = weaker binding
# Settings: reference: library average
row,Sequence,relative binding free energy
1,GTTTTCACGTGAGTAA,0.46 kcal/mol
2,ATTGCCACGTGAGTTT,0.11 kcal/mol
3,GCGTGCACGTGGGGCT,-0.17 kcal/mol
4,GAGTTCACGTGAATTG,0.47 kcal/mol
5,GGGGACACGTGGCTTA,0.01 kcal/mol
6,GATATCACGTGGTCGT,0.03 kcal/mol
7,GAGATCACGTGTCGGT,0.32 kcal/mol
8,AAATACACGTGGGGGC,0.05 kcal/mol
9,GGTGACACGTGTAGGC,0.15 kcal/mol
10,GGTGTCACGTGAGTTT,0.38 kcal/mol
11,TTAGCCACGTGGATTG,-0.06 kcal/mol
12,CGGTGCACGTGTGGTG,0.02 kcal/mol
13,GGTGTCACGTGATTAA,0.23 kcal/mol
14,TTTCACACGTGTGGGT,0.16 kcal/mol
15,GGGTACACGTGCGATG,-0.06 kcal/mol
16,GCTGACACGTGGGGAG,0.03 kcal/mol
17,GTGGGCACGTGCAGCG,-0.27 kcal/mol
18,TCAGACACGTGGGGTT,-0.12 kcal/mol
19,TCTGCCACGTGGTGTG,-0.13 kcal/mol
20,AAGTTCACGTGAAAAG,0.62 kcal/mol
21,CTTGTCACGTGGTAAT,0.11 kcal/mol
22,GTAGACACGTGTGGTC,0.05 kcal/mol
23,TAAAACACGTGTTGTA,0 kcal/mol
24,TGGAGCACGTGTTGAA,0.05 kcal/mol
25,GTGCGCACGTGTCTGT,-0.16 kcal/mol

row,Sequence,relative binding free energy
1,GAGGGCACGTGCTGTT,0.07 kcal/mol
2,TGGTGCACGTGTCGGG,0.02 kcal/mol
3,TGAAACACGTGTATTT,0.06 kcal/mol
4,TGGAACACGTGGATTG,0.08 kcal/mol
5,TTTATCACGTGGTCTC,0.09 kcal/mol
6,TTGGGCACGTGCTAGA,-0.06 kcal/mol
7,AGGTTCACGTGTGGCC,0.39 kcal/mol
8,GTTTGCACGTGCGACG,0.05 kcal/mol
9,ATTTACACGTGGTCGG,-0.07 kcal/mol
10,AAAAGCACGTGAGGTA,0.19 kcal/mol
11,CCTGGCACGTGTCGTG,0.09 kcal/mol
12,TTCGTCACGTGATGTT,0.12 kcal/mol
13,TTGATCACGTGGGCAG,-0.12 kcal/mol
14,GTTACCACGTGTCGGG,-0.04 kcal/mol
15,TGTTTCACGTGGTATA,0.16 kcal/mol
16,GGTAGCACGTGGTGTA,-0.13 kcal/mol
17,ATCTTCACGTGTTAGG,0.2 kcal/mol
18,GCAGGCACGTGGTAGA,-0.04 kcal/mol
19,ATTTTCACGTGTGGTA,0.23 kcal/mol
20,AGAGCCACGTGGCGTG,-0.08 kcal/mol
21,GTAGTCACGTGGTGTG,0.16 kcal/mol
22,TGCTTCACGTGTCGGT,0.23 kcal/mol
23,TAGTGCACGTGAAGTT,0.33 kcal/mol
24,TTGAACACGTGGTGAT,-0.06 kcal/mol
25,CATGCCACGTGGTTGT,-0.08 kcal/mol

row,Sequence,relative binding free energy
1,TGGAACACGTGCTTTG,-0.05 kcal/mol
2,AGTTGCACGTGATATG,0.05 kcal/mol
3,TATATCACGTGGGGCT,-0.01 kcal/mol
4,TGCTTCACGTGGGCGG,0.06 kcal/mol
5,ATTGACACGTGGATTA,0.03 kcal/mol
6,TTCAGCACGTGGGATT,-0.18 kcal/mol
7,AGGGTCACGTGGAGCC,0.17 kcal/mol
8,TCTGTCACGTGTGTAT,-0.03 kcal/mol
9,TGTAGCACGTGCATGT,-0.16 kcal/mol
10,TGAAACACGTGTAGTA,0.09 kcal/mol
11,TTAGGCACGTGGAGAA,-0.12 kcal/mol
12,AGAGTCACGTGTCTTT,0.15 kcal/mol
13,TATGACACGTGTGTTT,-0.02 kcal/mol
14,GTGTACACGTGCAGGG,-0.07 kcal/mol
15,ATGAGCACGTGGGACT,-0.09 kcal/mol
16,TAATGCACGTGCGTTG,-0.04 kcal/mol
17,GTGATCACGTGGGAGC,0.09 kcal/mol
18,ATCGACACGTGTGGAG,0.1 kcal/mol
19,TAGATCACGTGGTGGC,0.15 kcal/mol
20,CTATGCACGTGTTGTT,-0.15 kcal/mol
21,TGGGTCACGTGAGCGT,0.26 kcal/mol
22,TAAACCACGTGGGGGT,-0.18 kcal/mol
23,TCCTGCACGTGGGTAG,-0.12 kcal/mol
24,TCTTACACGTGATGGT,0.17 kcal/mol
25,TTTGTCACGTGCTGCA,-0.08 kcal/mol

row,Sequence,relative binding free energy
1,TGTTTCACGTGGGTGA,0.21 kcal/mol
2,TTTAGCACGTGGGCTA,-0.27 kcal/mol
3,TGTCGCACGTGAGTTA,0.13 kcal/mol
4,TGAATCACGTGTGCAT,0.15 kcal/mol
5,GTGAACACGTGCATGT,0.08 kcal/mol
6,AATGGCACGTGGGGGT,-0.16 kcal/mol
7,CTTTTCACGTGTGTGC,0.22 kcal/mol
8,GGTTTCACGTGCTTGT,0.27 kcal/mol
9,AGAAGCACGTGTTGTA,-0.15 kcal/mol
10,GGTGCCACGTGTTGTC,-0.02 kcal/mol
11,TGGGGCACGTGTGCTT,-0.07 kcal/mol
12,TGCGGCACGTGGAGAG,-0.13 kcal/mol
13,AGTGGCACGTGTGCAT,-0.05 kcal/mol
14,AGGCTCACGTGGTGCG,0.18 kcal/mol
15,TCTTTCACGTGCTAGT,0.24 kcal/mol
16,CTCGGCACGTGTGGGG,-0.12 kcal/mol
17,ATGTTCACGTGGTGAG,0.22 kcal/mol
18,GGTAGCACGTGATTGT,0.23 kcal/mol
19,GAGTTCACGTGGATGT,0.32 kcal/mol
20,ATAAGCACGTGGAGTG,-0.19 kcal/mol
21,ACGGTCACGTGGGGAT,-0.01 kcal/mol
22,TAGTTCACGTGGGAAG,0.32 kcal/mol
23,ACGGGCACGTGGCGTA,-0.19 kcal/mol
24,ATGGTCACGTGGGATC,0.05 kcal/mol
25,TTATGCACGTGGGGCC,-0.23 kcal/mol

row,Sequence,relative binding free energy
1,GTAGGCACGTGGTAAT,-0.19 kcal/mol
2,TTTTGCACGTGGCTGC,0.01 kcal/mol
3,GGTGACACGTGCCTGG,-0.01 kcal/mol
4,CTGCGCACGTGTTTGG,-0.03 kcal/mol
5,ACTTTCACGTGTTCGG,0.24 kcal/mol
6,TCATGCACGTGTGTTT,0 kcal/mol
7,AATTGCACGTGAGGTT,0.22 kcal/mol
8,GTCAACACGTGGTTGT,-0.02 kcal/mol
9,TATTGCACGTGTTAAA,0 kcal/mol
10,GTATTCACGTGTCGTA,0.41 kcal/mol
11,TAAAACACGTGGGAGT,-0.12 kcal/mol
12,ATCGGCACGTGTTAGT,0 kcal/mol
13,TGATACACGTGGGACT,0.06 kcal/mol
14,ATGTGCACGTGGGAGA,-0.3 kcal/mol
15,AGTTACACGTGAGAGT,0.27 kcal/mol
16,TAGCGCACGTGGGTAG,-0.31 kcal/mol
17,ATATGCACGTGTAGCG,-0.02 kcal/mol
18,GATTGCACGTGATGGG,0.2 kcal/mol
19,CGATGCACGTGCTGGT,-0.01 kcal/mol
20,GATTGCACGTGGTTTT,0.09 kcal/mol
21,GGGTTCACGTGGCATT,0.2 kcal/mol
22,TATTTCACGTGGCATG,0.2 kcal/mol
23,GGTGACACGTGGGGAC,-0.02 kcal/mol
24,ATCTGCACGTGTATGA,0.14 kcal/mol
25,AGGTGCACGTGCATGA,-0.11 kcal/mol

row,Sequence,relative binding free energy
1,TGGGTCACGTGTTCTT,0.03 kcal/mol
2,TGATGCACGTGCGCGG,-0.19 kcal/mol
3,TTGGACACGTGTTCGA,0.06 kcal/mol
4,AGGGTCACGTGATGTT,0.21 kcal/mol
5,TGGGCCACGTGGCAAG,-0.16 kcal/mol
6,CTGGGCACGTGTAGTA,-0.06 kcal/mol
7,AATGGCACGTGGCGTA,-0.31 kcal/mol
8,TATACCACGTGCAGGG,0.1 kcal/mol
9,GCTTTCACGTGGTGAT,0.28 kcal/mol
10,GTGTGCACGTGATGGC,0.12 kcal/mol
11,CGTTCCACGTGTGTTG,-0.01 kcal/mol
12,TTTTTCACGTGAATGT,0.45 kcal/mol
13,TAGTTCACGTGGGGCT,0.19 kcal/mol
14,TACGGCACGTGGGTGG,-0.19 kcal/mol
15,TGTGGCACGTGCGCTA,-0.23 kcal/mol
16,CGTGTCACGTGCAGTG,-0.03 kcal/mol
17,TGGCCCACGTGTGGTG,-0.21 kcal/mol
18,AGGAGCACGTGGAATT,0.11 kcal/mol
19,TGTTTCACGTGTCGGG,0.25 kcal/mol
20,TCAGGCACGTGCCGGG,-0.2 kcal/mol
21,ATTTGCACGTGGAGGA,0.03 kcal/mol
